Data published in PMC10726135.
The list shows a part of the results. At the low end of the ranking, values are background and their order means little. Measured with an extract: partners may take part in the binding.

What follows are sequences tested against T1, HNF4alpha8 (COS-7 nuclear extract) (UniProt P41235-5) (assay: protein-binding microarray). Conditions: COS-7 nuclear extract on double-stranded Agilent 4x180k PBM; binding buffer, salt, pH and temperature not given; high values mean tight binding; double strand, one strand shown; sequences stand for … in …GCCTAGGGAGATTAGAGTATCGGTCGA.
T1 sequence: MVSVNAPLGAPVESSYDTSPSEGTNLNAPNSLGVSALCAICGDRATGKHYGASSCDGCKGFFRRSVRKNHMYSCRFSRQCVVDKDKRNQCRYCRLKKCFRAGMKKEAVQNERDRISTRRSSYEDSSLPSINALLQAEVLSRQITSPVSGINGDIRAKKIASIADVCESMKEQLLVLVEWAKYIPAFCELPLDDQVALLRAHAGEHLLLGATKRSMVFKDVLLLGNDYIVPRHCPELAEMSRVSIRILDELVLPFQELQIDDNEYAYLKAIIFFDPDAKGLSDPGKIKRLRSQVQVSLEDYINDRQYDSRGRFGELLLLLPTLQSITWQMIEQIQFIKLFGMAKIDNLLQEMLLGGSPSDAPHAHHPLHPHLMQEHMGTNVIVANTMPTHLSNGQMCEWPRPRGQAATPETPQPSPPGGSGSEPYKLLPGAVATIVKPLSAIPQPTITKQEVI
TAATCAGAGCAGGAATTCTGATCTTTGACC was tested, and the binding signal (log2 normalized intensity) was 7.96.
TATGGCAGGGTCGGAATGTCTGGGCAAAGG was tested, and the binding signal (log2 normalized intensity) was 1.98.
With CACCCACTTGGATAATTTCTTATAAGCCGA the binding signal (log2 normalized intensity) was -1.36.
Work on GCCAAACTTGGGTTTATGGCTTATGCATGT yielded a binding signal (log2 normalized intensity) of 1.45.
GTTGGAAAAAAAAAAAAGTAGTAGGAGGAG gave a binding signal (log2 normalized intensity) of -1.31.
TCCACAGAGCACAGGATCCAGAGGTCACCC showed a binding signal (log2 normalized intensity) of 3.62.
GCAATGCCTCGCCCTGCTTCGGCTCGCGCA gave a binding signal (log2 normalized intensity) of -1.43.
For TGGGCAAGATGGCTCTCCCGGGGCGGGGGT, the binding signal (log2 normalized intensity) was -1.11.
With GTAAAGTCTGGCATACAGGGTCCAAAGGTG the binding signal (log2 normalized intensity) was 6.76.
TTGCATGAGAATCTGACCTTTGGTTAACTT showed a binding signal (log2 normalized intensity) of 5.7.
CTCCAGGTACAAGGATAAATACTTCTCCTC showed a binding signal (log2 normalized intensity) of -1.32.
Work on CCCGGTGCGCTGGCCTTGCTTTTCACAGTC yielded a binding signal (log2 normalized intensity) of -0.861.
Sequence GTCCCTGCTTGATAAGACTGACAACCGGCT has a binding signal (log2 normalized intensity) of -1.36.
For TGGAACTGACATGCTGTCACTTCTGCTGCA, the binding signal (log2 normalized intensity) was -1.35.
In the case of TCCTCTTATCTTCAGGTATCCTTAAACACT, the binding signal (log2 normalized intensity) is reported as -0.323.
In the case of TTCTCAATGTCTTTCCTGCAGAGGGACTGA, the binding signal (log2 normalized intensity) is reported as 1.35.
TTGTTTAGGTACAAAGTCCATTGGAAGCCA showed a binding signal (log2 normalized intensity) of 6.42.
For GACAATAATGAATAAGCACGTTAGAGAAAA, the binding signal (log2 normalized intensity) was -1.31.
For CCAACATTCCAGAGAAGCACATCCAGGCAG, the binding signal (log2 normalized intensity) was -1.35.
AAGTGGGGGGAAAGAATAACGTTACAGTGG gave a binding signal (log2 normalized intensity) of -1.42.
Sequence CTGAGGGGGGCCTCTTTTAAGAAGCCAGTG has a binding signal (log2 normalized intensity) of -1.34.
In the case of AACCTCACAGAAATCCAAAGGTCAACAGCC, the binding signal (log2 normalized intensity) is reported as 4.86.
For ACAAGACCACAAGGTGGCGATAACTCCTTT, the binding signal (log2 normalized intensity) was -1.24.
ACCTCATTGTGATGTGTGCGTTCATCTCAC was tested, and the binding signal (log2 normalized intensity) was 1.54.
In the case of TAATCAGCTTAAGCATACAGATTACATCTC, the binding signal (log2 normalized intensity) is reported as -1.03.
Sequence AGCTCTAGAACGCTGACTCCGGGGAGCAGG has a binding signal (log2 normalized intensity) of -1.33.
Work on GTGGGAGGCCAAGAGATAAAAGAGAAGATA yielded a binding signal (log2 normalized intensity) of -1.3.
Work on CCAGCTGGTTTGCCTCTCTTAGGTGACAGC yielded a binding signal (log2 normalized intensity) of -0.948.
AGGTGAATGTACAAAGGTCAACGGCACAAG showed a binding signal (log2 normalized intensity) of 5.02.
GTGTATGTGTGTGTACACATTGATATGTTT gave a binding signal (log2 normalized intensity) of 1.92.
Work on TGTGTCGATGTTAACGCTAAAGAGGTATCA yielded a binding signal (log2 normalized intensity) of 1.3.
In the case of AGAGCGATCAAAGGTCACAGAGACCACAGG, the binding signal (log2 normalized intensity) is reported as 5.89.
Sequence GCTCCTATCATCCCTATCACTCAAGAAATG has a binding signal (log2 normalized intensity) of 0.00841.
CTTTATTATCCCAGTAGAGAAACAAATCTG showed a binding signal (log2 normalized intensity) of 0.0079.
For TCCTACTTCTGTTTAAACTGATAACCTTGC, the binding signal (log2 normalized intensity) was 1.15.
With CCACAATTACTGAAGTTCCAGAGCCTTCAA the binding signal (log2 normalized intensity) was -1.32.
In the case of AGATAGCACCAGCCCATTAATCAAGGCTGC, the binding signal (log2 normalized intensity) is reported as -1.27.
Work on TACTTAATGATCTTGGCTGCTTTAGACATG yielded a binding signal (log2 normalized intensity) of 0.416.
TTACAAAACAGGTTCTTCCACGACTCCCCC was tested, and the binding signal (log2 normalized intensity) was 4.
Sequence CCCCTCCTGTCAGTTTATTTACTGTCCTCA has a binding signal (log2 normalized intensity) of 1.88.
Sequence TAACCTTTGACCATCCACGGGTCCATGATT has a binding signal (log2 normalized intensity) of 5.27.
For GGTTATGCAGAGCTTAGTTTGCCACGGTCA, the binding signal (log2 normalized intensity) was 0.515.
TAGAATTTGAACTATGGTCATCTGAGGGAA showed a binding signal (log2 normalized intensity) of 2.24.
AGAGAGAGGGAGAGTGGCCTTTGGAATCAA was tested, and the binding signal (log2 normalized intensity) was 4.1.
Work on GAGGAGTGGCCATGATGCCATCTGGTGAAG yielded a binding signal (log2 normalized intensity) of -1.24.
With GATGGAACAGTGTAACACATGGCATAGTTG the binding signal (log2 normalized intensity) was 0.704.
With AAAGATTGCATGAGATTTTGCTCAACAAAT the binding signal (log2 normalized intensity) was -1.24.
GAGAAATCACGGACTATCCCCGTCCGCGGA showed a binding signal (log2 normalized intensity) of -1.41.
TTCCTGGGCTCAAACAATCCTCCCACCTCA was tested, and the binding signal (log2 normalized intensity) was 1.09.
TTCTCAAACCTTCCAAAGTTCAACCTCATT was tested, and the binding signal (log2 normalized intensity) was 2.84.
Sequence GAGACTTTGGACTTTGGACTTGGGACTTTC has a binding signal (log2 normalized intensity) of 9.81.
For CAGTGAAAACAGCCCTAACCAGGGGTGGGG, the binding signal (log2 normalized intensity) was -1.37.
GACTGGGTGTGGGGGTGGAGAAGGAAGGGG gave a binding signal (log2 normalized intensity) of -1.28.
Sequence TGGAGCATGACCCTTTGCAGGTGGGAGAGG has a binding signal (log2 normalized intensity) of 0.928.
In the case of CAGCCAGCAGGGGGCGCAGAAGGGATGGGA, the binding signal (log2 normalized intensity) is reported as -1.42.
For CAACTGTGTGTGGCCTGCACAGTTGCACAA, the binding signal (log2 normalized intensity) was -1.3.
With ATGTGAAGCTTGCTGATTACATAGGAGGCT the binding signal (log2 normalized intensity) was -1.28.
With TCCACTTCTGAGGAGAAGAATGAAAGCCAA the binding signal (log2 normalized intensity) was -1.27.
For AGTGTGTTGACATTTGAACCCAACCGTCCA, the binding signal (log2 normalized intensity) was 3.74.
TGTGCTGCCCTCTTGTGGCCATTTGGGAAA gave a binding signal (log2 normalized intensity) of 1.44.
Work on TGCTAAGATGGTCTCAGGTGGAGATAAGGA yielded a binding signal (log2 normalized intensity) of -0.538.
GGGAGAAACCTGCCAGGTGGACCAAAACAC showed a binding signal (log2 normalized intensity) of -0.226.
CAGGAAGTTCAGGCCTCGGCTTCATTAGCA showed a binding signal (log2 normalized intensity) of -1.36.
For CTCTGATTCTCCAGTCCGAAGGTCCACCCG, the binding signal (log2 normalized intensity) was 3.68.
For CTTGTTATATTGGATAGTGCCTTTTCTAAT, the binding signal (log2 normalized intensity) was 1.82.
Work on CTACAGGAGAACAAAGTTCACCTTTCCCTT yielded a binding signal (log2 normalized intensity) of 3.72.
TGCGCTGGTTTTATGGTGTCTTATCTTCCT gave a binding signal (log2 normalized intensity) of 2.11.
With CTCACAGAGTGGAGTCTTCCGTTTGATAGA the binding signal (log2 normalized intensity) was -1.11.
Sequence CCGGTTTGGGGACTTCTCCCCAGAGCCTCT has a binding signal (log2 normalized intensity) of -1.33.
With AAAAGGCCCCAGGGATTGCACAGGATGCCA the binding signal (log2 normalized intensity) was -1.32.
CCTAAACCTGCAAACCTTTGACCTTTCCAT was tested, and the binding signal (log2 normalized intensity) was 6.22.
GAGGTTCCTGGAACTCTGACCTTTGCCCCC showed a binding signal (log2 normalized intensity) of 10.3.
Sequence CAAGAGGACAAGGTTCAAAAGCTACCTGTT has a binding signal (log2 normalized intensity) of 2.73.
For TGCCTGGCTCAGCATTCTGAGGGCCTCCAA, the binding signal (log2 normalized intensity) was -1.19.
Sequence AGCTCTTCTGTGCCTCCCAAATGCAAACAG has a binding signal (log2 normalized intensity) of 1.45.
CGCTGCTTCCACCAGGGCTAGACCCGTCAG gave a binding signal (log2 normalized intensity) of -1.35.
GAGCCCAGACAAGCATTCTGCTGAAGGAGC showed a binding signal (log2 normalized intensity) of -1.32.
AATCGACCTTTAGCACCGTAAGAGAGTATT was tested, and the binding signal (log2 normalized intensity) was 4.63.
Sequence TACCAGTAGGACCACATTCAATCATGAACA has a binding signal (log2 normalized intensity) of -1.37.
TCCTTTTCTTTCACATACAAAATTTACTTT showed a binding signal (log2 normalized intensity) of 1.75.
With GCTGATTGCTCAACCCAAAGCATGTCCAGA the binding signal (log2 normalized intensity) was -1.31.
For CATCATAGTTATTCAGTACAGACTTGTGTA, the binding signal (log2 normalized intensity) was 1.47.
With ATGAATACATGAGTGATCCTGAAAACAAAT the binding signal (log2 normalized intensity) was -1.24.
ATCAAAGGCCTTCCTATCTCTACTTGCCGA was tested, and the binding signal (log2 normalized intensity) was -1.31.
ACTAAAGGTTAAACATGTACTCTGTACTCC gave a binding signal (log2 normalized intensity) of 3.43.
In the case of TCCCCACCCGGTGTGCGTGGGTGGGAAATC, the binding signal (log2 normalized intensity) is reported as 1.15.
Sequence TTTGCAGAGGGAAAGCGAGAGAGCCTGGAC has a binding signal (log2 normalized intensity) of -1.42.
With TCAGGTCCAAGGAACCTCACGCGCTCCCTG the binding signal (log2 normalized intensity) was -1.34.
In the case of ATCAAGATCACTGCCTTGGAGGCACTCCCA, the binding signal (log2 normalized intensity) is reported as -1.29.
AAAAGCCGGGGAAAGGGAAAAAGGGAGATA showed a binding signal (log2 normalized intensity) of -1.36.
GGGGCCTTGCAATGAGGCGACATCAAAGCA was tested, and the binding signal (log2 normalized intensity) was -1.25.
ATTCCCTCTAATCTGGGACAAGGGGGAGGA showed a binding signal (log2 normalized intensity) of -1.42.
In the case of AGACTCCTGCATATCCTGACTGCTGACCTT, the binding signal (log2 normalized intensity) is reported as 3.85.
